{"source": "patent US20100210602A1", "about": "“PhoU (PerF), A P[…] INVOLVED IN [sequence] FORMATION AND TOLERANCE TO MULTIPLE ANTIBIOTICS AND [sequence] AS A DRUG TARGET FOR [sequence] BACTERIA” (priority 2006, published 2010)", "type_in_all_cases": "cell-based", "key": {"[1]": {"tested_on": "W3110ΔphoU containing pPhoUA51H", "settings": "ampicillin 100 ug/ml, 1 mM IPTG"}, "W3110": {"tested_on": "W3110", "settings": "ampicillin 100 ug/ml"}, "[2]": {"tested_on": "W3110ΔphoU containing pPhoU118"}}, "note": "Several values for one entry are separate records, joined by “and”; a condition that tells them apart may be missing. Identical values can stand only once. Like-named read-outs stand apart in the source and are kept apart here."}
{"smiles": "CC1(C)S[C@@H]2[C@H](NC(=O)[C@H](N)c3ccccc3)C(=O)N2[C@H]1C(=O)O", "note": "[Ampicillin, ampicillin]", "values": [{"measurement": "CFU after ampicillin exposure", "setting": "[1]; MOPS, N/A (no Pi, no Fe3+)", "value": "4 × 10^8 CFU"}, {"measurement": "CFU after ampicillin exposure", "setting": "[1]; Pi 2 mM", "value": "3 × 10^5 CFU"}, {"measurement": "CFU after ampicillin exposure", "setting": "W3110; Fe3+ 250 uM", "value": "5 × 10^8 CFU"}, {"measurement": "CFU after ampicillin exposure", "setting": "W3110; MOPS, N/A (no Pi, no Fe3+)", "value": "5 × 10^8 CFU"}, {"measurement": "CFU after ampicillin exposure", "setting": "W3110; Pi 0.01 mM", "value": "3 × 10^8 CFU"}, {"measurement": "CFU after ampicillin exposure", "setting": "W3110; Pi 2 mM", "value": "9 × 10^6 CFU"}, {"measurement": "CFU after ampicillin exposure", "setting": "[2]", "value": "5.5 × 10^8 CFU and 5 × 10^8 CFU"}]}
